Test results from the antibiotic and cytotoxicity screens of Wong et al. (2023).
Some of the results follow.

How the values were obtained:
[1] = system: HSkMC (human skeletal muscle cells); assay: cytotoxicity call (relative viability < 0.9); details: 10 µM
[2] = system: HepG2; assay: cytotoxicity call (relative viability < 0.9); details: 10 µM
[3] = system: S. aureus RN4220; assay: growth inhibition call (relative growth <= 0.2); details: 50 µM

| SMILES | cytotoxicity call [1] | cytotoxicity call [2] | growth inhibition call [3] |
| --- | --- | --- | --- |
| O=C(C[C@H]1NC(=O)NC1=O)Nc1ccccc1 | inactive | inactive | inactive |
| CC(C)NC(=O)N(C)C[C@H]1OCCCC[C@@H](C)Oc2ccc(NS(=O)(=O)c3cn(C)cn3)cc2C(=O)N([C@@H](C)CO)C[C@@H]1C | inactive | inactive | inactive |
| C[C@@H]1CN([C@H](C)CO)C(=O)c2cccc(NS(=O)(=O)c3ccccc3)c2O[C@@H]1CN(C)S(=O)(=O)c1cn(C)cn1 | inactive | inactive | inactive |
| O=C(O)[C@@H]1[C@@H](CO)[C@@H]2Cn3c(ccc(-c4cncnc4)c3=O)[C@@H]2N1C(=O)C1CCC1 | inactive | inactive | inactive |
| C[C@H]1CN([C@@H](C)CO)S(=O)(=O)c2ccc(C#CCN(C)C)cc2O[C@@H]1CN(C)C | inactive | inactive | inactive |
| CNC(=O)C[C@@H]1CC[C@H]2[C@@H](COC[C@H](O)CN2C(=O)Nc2cccc(OC)c2)O1 | inactive | inactive | inactive |
| O=C(C[C@H]1CC[C@H]2[C@@H](COC[C@H](O)CN2C(=O)Nc2cccc(F)c2)O1)NCc1ccccc1Cl | inactive | inactive | inactive |
| COc1ccc(S(=O)(=O)Nc2ccc3c(c2)CC(=O)N([C@@H](C)CO)C[C@H](C)[C@H](CN(C)S(=O)(=O)c2ccc(C)cc2)O3)cc1 | inactive | inactive | inactive |
| COc1cccc(S(=O)(=O)N2[C@@H]3CC[C@@H](C3)[C@H]2c2nc3cccc(OCc4ccc(F)cc4)c3[nH]2)c1 | inactive | active | inactive |
| CNC(=O)[C@H]1C[C@@H]2CCN(C(=O)N(C)C)C[C@H]2O1 | inactive | inactive | inactive |
| C[C@@H]1CCCCO[C@@H](CN(C)S(=O)(=O)c2ccccc2)[C@@H](C)CN([C@H](C)CO)C(=O)c2cc(NC(=O)Nc3cccc4ccccc34)ccc2O1 | inactive | inactive | inactive |
| CCCNC(=O)N(C)C[C@H]1Oc2ncc(-c3ccc(C(=O)N(C)C)cc3)cc2C(=O)N([C@@H](C)CO)C[C@@H]1C | inactive | inactive | inactive |
| C[C@H](CO)N1C[C@H](C)[C@@H](CN(C)Cc2ccc(C(=O)O)cc2)OCCCC[C@H](C)Oc2ccc(NC(=O)Nc3ccc4c(c3)OCO4)cc2C1=O | inactive | inactive | inactive |
| C[C@@H]1CCCCO[C@@H](CN(C)Cc2ccccc2)[C@H](C)CN([C@H](C)CO)C(=O)c2cc(NC(=O)CCC(F)(F)F)ccc2O1 | inactive | inactive | inactive |
| NCCC(=O)N[C@@H](Cc1cnc[nH]1)C(=O)O.[Zn+3] | inactive | inactive | inactive |
| COCCNC(=O)C[C@H]1CC[C@H]2[C@@H](COC[C@H](O)CN2C(=O)Nc2ccc3c(c2)OCO3)O1 | inactive | inactive | inactive |
| C=C1CC2C3C=C(C)C4=CC(=O)CCC4(C)C3CCC2(C)C1(OC(C)=O)C(C)=O (stereo not drawn) | inactive | inactive | inactive |
| C[C@H](CO)N1C[C@H](C)[C@@H](CN(C)S(=O)(=O)c2cccs2)Oc2ccc(NC(=O)CCN3CCOCC3)cc2C1=O | inactive | inactive | inactive |
| O=C(Cc1ccsc1)N(Cc1ccc2c(c1)OCO2)Cc1cc2cc3c(cc2nc1N1CCOCC1)CCC3 | inactive | inactive | inactive |

| SMILES | cytotoxicity call [1] | cytotoxicity call [2] | growth inhibition call [3] |
| --- | --- | --- | --- |
| C[C@@H]1CN([C@@H](C)CO)S(=O)(=O)c2ccc(C#CC3CC3)cc2O[C@H]1CN(C)C(=O)C1CCCCC1 | inactive | inactive | inactive |
| C[C@@H]1CN([C@H](C)CO)S(=O)(=O)c2ccc(-c3cccnc3)cc2O[C@H]1CN(C)C(=O)c1cccc(F)c1 | inactive | inactive | inactive |
| C[C@H]1CN([C@@H](C)CO)C(=O)c2cc(NS(=O)(=O)c3cn(C)cn3)ccc2O[C@H]1CN(C)S(=O)(=O)c1ccc(Cl)cc1 | inactive | inactive | inactive |
| C[C@H]1CN([C@@H](C)CO)C(=O)c2cc(Br)cnc2O[C@@H]1CN(C)S(=O)(=O)c1cn(C)cn1 | inactive | inactive | inactive |
| C[C@@H]1CCCCO[C@@H](CN(C)Cc2ccc3c(c2)OCO3)[C@H](C)CN([C@@H](C)CO)C(=O)c2cc(NC(=O)Nc3ccc(C(F)(F)F)cc3)ccc2O1 | active | active | inactive |
| CC(C)=CCC/C(C)=C/CC/C(C)=C/CC/C(C)=C/CO | inactive | inactive | inactive |
| C[C@H]1CN([C@@H](C)CO)C(=O)c2cccc(NS(=O)(=O)c3ccccc3)c2O[C@H]1CN(C)C(=O)Nc1cccc2ccccc12 | inactive | inactive | inactive |
| COc1ccc(S(=O)(=O)N(C)C[C@@H]2OCCCC[C@@H](C)Oc3ccc(NC(=O)Nc4ccc(F)cc4)cc3C(=O)N([C@H](C)CO)C[C@@H]2C)cc1 | inactive | inactive | inactive |
| COc1ccc([Si](C)(C)[C@H]2[C@H](CCO)O[C@@]3(C(=O)N(Cc4ccc(N5C(=O)c6ccccc6Oc6ccccc65)cc4)c4ccccc43)[C@@H]2C)cc1 | inactive | active | inactive |
| CCCC/C=C/[C@H]([C@@H](O)Cc1ccccc1)N(CC#Cc1ccccc1)Cc1ccccc1Br | inactive | inactive | inactive |
| Cn1cnc(S(=O)(=O)N2C[C@@H](O)COC[C@H]3O[C@@H](CC(=O)NC4Cc5ccccc5C4)CC[C@@H]32)c1 | inactive | inactive | inactive |
| C[C@H]1CN([C@@H](C)CO)C(=O)c2cc(C#CC3(O)CCCC3)cnc2O[C@H]1CN(C)S(=O)(=O)c1ccccc1 | inactive | inactive | inactive |
| COC(=O)[C@H](Cc1ccccc1)N1CC2=C[C@@H](C3CC3)n3c(=O)n(C)c(=O)n3[C@H]2[C@@H]1[C@@H](O)CCn1cc(-c2ccc(C(=O)NO)s2)nn1 | inactive | inactive | inactive |
| Cc1ccc(S(=O)(=O)N(C)C[C@H]2OCCCC[C@H](C)Oc3ccc(NC(=O)Nc4c(C)noc4C)cc3C(=O)N([C@H](C)CO)C[C@@H]2C)cc1 | inactive | inactive | inactive |
| C[C@@H]1CN([C@@H](C)CO)C(=O)c2cc(C#CCN(C)C)cnc2O[C@H]1CN(C)C(=O)CCN1CCCCC1 | inactive | inactive | inactive |
| C[C@@H]1CN([C@@H](C)CO)C(=O)c2cc(NC(=O)CCN3CCOCC3)ccc2O[C@@H]1CN(C)Cc1ccccc1 | inactive | inactive | inactive |
| C[C@@H]1CN([C@@H](C)CO)C(=O)Cc2cc(NC(=O)Cn3cnnn3)ccc2O[C@H]1CN(C)Cc1ccc(C(=O)Nc2ccccc2N)cc1 | inactive | inactive | inactive |
| CC(C)(C)c1nc[nH]c1/C=c1\[nH]c(=O)/c(=C/c2ccccc2)[nH]c1=O | inactive | inactive | inactive |
| Cc1ccc2nc(-c3ccncc3)cc(-c3ccccc3)c2c1 | inactive | inactive | inactive |

| SMILES | cytotoxicity call [1] | cytotoxicity call [2] | growth inhibition call [3] |
| --- | --- | --- | --- |
| CC(C)(C)[S@@](=O)N1Cc2cc(C(=O)N3CCCCC3)nc(-c3cccc(-c4ccc(F)cc4)c3)c2[C@H]1CCO | inactive | inactive | inactive |
| C[C@@H]1CCCCO[C@H](CN(C)C(=O)c2ccccc2)[C@H](C)CN([C@@H](C)CO)C(=O)c2cc(NC(=O)Nc3ccc4c(c3)OCO4)ccc2O1 | inactive | inactive | inactive |
| C[C@@H]1CN([C@@H](C)CO)C(=O)Cc2cc(NC(=O)C3CCCCC3)ccc2O[C@@H]1CN(C)Cc1ccc(Cl)c(Cl)c1 | active | inactive | inactive |
| CC(C)(C)[S@@](=O)N1Cc2cc(C(=O)NCc3ccncc3)nc(-c3cccc(-c4ccc(C#N)cc4)c3)c2[C@H]1CCO | inactive | inactive | inactive |
| Nc1nnc(SCC(=O)N2CCOCC2)[nH]1 | inactive | inactive | inactive |
| C[C@H](CO)N1C[C@H](C)[C@@H](CN(C)Cc2ccc(-c3ccccc3)cc2)Oc2ccc(NS(=O)(=O)c3ccc(Cl)cc3)cc2CC1=O | inactive | inactive | inactive |
| C[C@@H]1CCCCO[C@H](CN(C)C(=O)Nc2ccc(C(F)(F)F)cc2)[C@@H](C)CN([C@H](C)CO)C(=O)c2cc(NC(=O)NC3CCCCC3)ccc2O1 | inactive | inactive | inactive |
| C[C@H]1CCCCO[C@H](CN(C)C(=O)c2ccccc2)[C@@H](C)CN([C@@H](C)CO)C(=O)c2cc(NS(=O)(=O)c3cccs3)ccc2O1 | inactive | inactive | inactive |
| CC(C)Cc1ccc(CN2CC[C@@H](N)C2)cc1 | inactive | inactive | inactive |
| COc1ccc(S(=O)(=O)N(C)C[C@@H]2OCCCC[C@@H](C)Oc3ccc(NS(=O)(=O)c4cn(C)cn4)cc3C(=O)N([C@@H](C)CO)C[C@H]2C)cc1 | inactive | inactive | inactive |
| CC(C)(C)C(=O)OCOP(=O)(OCOC(=O)C(C)(C)C)C(C)(Oc1ccc(O)cc1)P(=O)(OCOC(=O)C(C)(C)C)OCOC(=O)C(C)(C)C | inactive | active | inactive |
| CO[C@H]1CN(C)C(=O)c2ccc(NS(=O)(=O)c3cn(C)cn3)cc2OC[C@@H](C)N(CCC(F)(F)F)C[C@H]1C | inactive | inactive | inactive |
| CNCC(=O)O | inactive | inactive | inactive |
| COC(=O)CC1C(C)(C)C(=O)C2CC3=C(CCC4(C)C3=CC(=O)OC4c3ccoc3)C1(C)C2=O (stereo not drawn) | inactive | inactive | inactive |
| C[C@H]1CN([C@@H](C)CO)C(=O)Cc2cc(NC(=O)C3CCCCC3)ccc2O[C@H]1CN(C)Cc1ccc(C(=O)Nc2ccccc2N)cc1 | inactive | inactive | inactive |
| CC1CN(c2c(F)c(F)c3c(=O)c(C(=O)O)cn(C4CC4)c3c2F)CC(C)N1 (stereo not drawn) | inactive | inactive | active |
| CCN1C(=O)S[C@@H](CC(=O)O)C1=O | inactive | inactive | inactive |
| COCC(=O)N1C[C@H](C)[C@H](OC)CN(C)C(=O)c2ccc(NC(=O)c3cc(C)on3)cc2OC[C@H]1C | inactive | inactive | inactive |
